Values joined by “and” are separate entries in the source; they are usually repeats but may differ in a detail not shown here. Equal entries are not always repeated.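 Cells were grown in 96-well plates and exposed to each compound for 48 hours at five concentrations; endpoints were interpolated linearly between bracketing concentrations, or set to the highest concentration if not reached. GI50 is the concentration that inhibits growth by half. TGI: concentration producing complete growth inhibition.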
test system: NCI-H322M lung; experiment: NCI-60 cell line screen, 48 h

Structure (SMILES)	TGI	GI50
CCOC(=O)C(NC(=O)c1cccc(Cl)c1)(Nc1ccc(S(=O)(=O)Nc2cc(C)on2)cc1)C(F)(F)F (configuration not stated)	> 100 µM	–
Oc1ccccc1-c1nn(CNc2ccc(Cl)cc2)c(=S)o1	> 100 µM	8.96 µM
CN(C)c1ccc(/C=c2\sc3nnc(-c4ccco4)n3c2=O)cc1	> 100 µM	–
O=[N+]([O-])c1nccn1CC(O)c1ccccc1 (configuration not stated)	> 100 µM	–
FC1(F)ON2CCc3ccccc3C2[C@H]1c1ccccc1 (some centres not stated)	> 100 µM	> 100 µM
COc1cc(C2C=C(c3ccccc3)Oc3cc4c(cc32)OCO4)cc(OC)c1OC (configuration not stated)	> 100 µM	–
NC(=O)c1cc(N2CC2)c([N+](=O)[O-])cc1[N+](=O)[O-]	> 200 µM	> 200 µM
COc1ccc(CC(=O)NCCc2ccc(OC)c(OC)c2OC)cc1	> 100 µM	–
CC(=O)Nc1nc(C)c(S(=O)(=O)NC(=O)NC2NC(=O)NC2=O)s1 (configuration not stated)	> 100 µM	–
COc1ccc(C2SCC(=O)N2c2ccc(-n3c(-c4ccccc4)nc4ccccc4c3=O)cc2)cc1 (configuration not stated)	> 100 µM	–
S=C(NCc1ccccc1)Nc1sc(=NCc2ccccc2)nc2sc3c(c12)CCN(N1CCc2c(sc4nc(=NCc5ccccc5)sc(NC(=S)NCc5ccccc5)c24)C1)C3	76.6 µM	–
CCSC[C@@H]1C[C@](O)(c2ccc(Cl)cc2)[C@@H](c2ccc(Cl)cc2)O1	39.8 µM	19.4 µM
COc1cc(-c2nn(-c3cccc(NC(=O)Nc4ccc(Cl)c(C(F)(F)F)c4)c3)cc2-c2ccncc2)ccc1Cl	13.9 µM	1.5 µM
C[C@H](Nc1nc(N)c(N=O)c(=O)n1C)C(=O)O	> 10 µM	–
OC1CC2CCC(C1)N2CCCN1c2ccccc2Sc2ccc(Cl)cc21 (configuration not stated)	8.22 µM	–
Cn1ncc(Cl)c1-c1cc(C(=O)N[C@H](CN)Cc2cccc(F)c2)sc1Cl	> 10 µM and 19.7 µM	2.6 µM and 5.87 µM
COC(=O)C1CCC(=O)N1C(c1ccc(OC)cc1)c1cc(OC)c(OC)c(OC)c1 (configuration not stated)	> 31.6 µM	–
Cc1ccc2c(C(C[N+](=O)[O-])c3ccccc3)c(-c3ccccc3)[nH]c2c1 (configuration not stated)	> 95 µM	37.3 µM
Cc1c(CN2CCN(C(=O)[C@H](C)O)CC2)sc2c(N3CCOCC3)nc(-c3cnc(N)nc3)nc12	4.33 µM and 3.74 µM	0.353 µM and 0.233 µM
CCOC(=O)c1[nH]c2cc(Cl)ccc2c1[C@@H](C(=O)NC(C)(C)C)N(CC)C(=O)CCCCC#Cc1cccc2c1CN(C1CCC(=O)NC1=O)C2=O (some centres not stated)	> 48.6 µM	< 0.0296 µM
CC1=C([Te]c2ccccc2)C(=O)c2ccccc2C1=O	2.88 µM	0.388 µM
CCCc1nn(C)c2c(=O)[nH]c(-c3cc(S(=O)(=O)N4CCN(C)CC4)ccc3OCC)nc12	> 100 µM	> 100 µM
COc1ccc(CCN2CCN(CCCc3ccccc3)CC2)cc1	> 100 µM	–
S=P1(Sc2ccccc2)Oc2ccc3ccccc3c2-c2c(ccc3ccccc23)O1	> 93.3 µM	–

Structure (SMILES)	TGI	GI50
Nc1nc(=O)n(C2CCC(CO)O2)cc1F (configuration not stated)	> 100 µM	–
Cc1ccc2c(c1)nc1n2C(c2c(F)cccc2F)SC1 (configuration not stated)	> 100 µM	–
O=P1(c2ccccc2)C(c2ccccc2)CCC1c1ccccc1 (configuration not stated)	> 100 µM	–
Cc1ccc(NCC2(/N=C/c3ccccc3)OC(CO)C(O)C2O)cc1 (configuration not stated)	> 100 µM	–
ClCc1nc2ccccc2[nH]1	> 100 µM	–
O=[N+]([O-])c1ncc(N(CCO)CCO)s1	> 100 µM	–
COc1ccc2[nH]cc(CCNC(=O)[C@H](Cc3ccc(O)cc3)NC(=O)[C@@H](NCC(F)(F)F)C(C)C)c2c1	> 100 µM	–
CSc1cc([C@@H]2C[C@H]2c2ccc(Cl)cc2)on1	71.8 µM	23.7 µM
CCCCCCN(CCCCCC)CCC(=O)c1ccc2cc(Br)c3ccccc3c2c1	> 100 µM	–
CN(C)c1ccc(/C=C/C=c2/c3ccccc3n3c2cc(-c2ccccc2)[n+]3C)cc1	1.23 µM	–
O=C(O)c1cccc(S(=O)(=O)NCCO)c1	> 100 µM	–
Fc1cccc(COc2ccc(Nc3ncnc4onc(-c5ccccc5)c34)cc2)c1	> 100 µM	0.441 µM
CN(C)c1ccc(/C=N/NC(N)=S)nc1	> 100 µM	6.46 µM
COC(=O)CCc1ccc(CCC(=O)OC)cc1	> 100 µM	–
COc1c2c(c3c(c1OC)c(=O)c1ccccc1n3C)OCO2	> 100 µM	–
COC(=O)CCC(=O)Nc1ccc(Cl)cc1C	> 100 µM	–
CC(C)C1CSC2N1C(=O)C2(OCc1ccccc1)C1CC1 (configuration not stated)	> 100 µM	–
C=C(C)[C@@H]1CC[C@]2(CO)CC[C@]3(C)[C@H](CC[C@@H]4[C@@]5(C)CCCNC(C)(C)[C@@H]5CC[C@]43C)[C@@H]12	3.03 µM	1.63 µM
c1ccc(SC(Sc2ccccc2)=C2CCC2)cc1	> 100 µM	–
CC1(C)Oc2ccc3ccc(=O)oc3c2C(O)C1O (configuration not stated)	> 100 µM	–
O=C(Nc1ccccc1)N(CCN(Cc1ccccc1)C(=O)Nc1ccccc1)CCN(Nc1ccccc1)C(=O)Nc1ccccc1	> 100 µM	–
CC1(C)N=C(N)N=C(N)N1c1ccc(CNC(=O)Nc2ccc(S(=O)(=O)F)c(Cl)c2)c(Cl)c1	> 100 µM	1.38 µM
CCC1=C(c2ccc(OC)cc2)C(C)(C)Oc2c1ccc(O)c2CN1CCCC1	9.2 µM	2.5 µM
Cc1ccc(OP(=O)(Oc2ccc(C)cc2)N2C=Cc3ccccc3C2C#N)cc1 (configuration not stated)	> 100 µM	–

Structure (SMILES)	TGI	GI50
NC(=S)N1N=C2CCCCCC[C@@H]2[C@H]1c1ccccc1	> 100 µM	–
Cc1ccc(/C=C/C(=O)c2ccc(Cl)c(Cl)c2)cc1	> 100 µM	–
Cc1cn(C2CC(n3cc(Cn4ccc(=O)[nH]c4=O)nn3)C(CO)O2)c(=O)[nH]c1=O (configuration not stated)	> 100 µM	–
Cc1ccc(S(=O)(=O)n2cc(C=O)c(-c3cn(S(=O)(=O)c4ccc(C)cc4)cc3-c3cn(S(=O)(=O)c4ccc(C)cc4)cc3C=O)c2)cc1	> 100 µM	–
CCOP(=O)(OCC)Oc1c(OC)c2[nH]c(C(=O)OC)cc2c2c(C(=O)O)c[nH]c12	> 100 µM	–
Cn1c(-c2ccco2)ccc1-c1ccc(C=O)o1	> 100 µM	–
Cc1c(NC(=S)Nc2ccc([N+](=O)[O-])cc2)c(=O)n(-c2ccccc2)n1C	> 100 µM	–
COC(NC(=O)Nc1ccc(C)cc1)(C(F)(F)F)C(F)(F)F	> 100 µM	–
O=C(OC1=CCN(Br)C1=O)C1=C(O)C(=O)N(Br)C1	> 100 µM	–
CSc1ccc(C2=NN(C(C)=O)C(c3ccc(-c4cc(Cl)c(Cl)cc4Cl)o3)C2)cc1 (configuration not stated)	39.9 µM	18.8 µM
Nc1ncc(-c2ccc3ncnc(Nc4cccc(Cl)c4)c3c2)cn1	> 100 µM	0.123 µM
COc1ccc(-c2ncnc3c2ncn3CC#CCCl)cc1	25.6 µM	12.5 µM
Cc1ccc(OCC2CO2)c(Br)c1 (configuration not stated)	> 100 µM	–
COC(=O)[C@H](Cc1ccccc1)NC(=O)c1ccc(CNC(=O)/C=C/c2ccc(OCc3ccccc3)cc2)cc1	> 88 µM	–
c1ccc2c3c(ccc2c1)-c1[nH]ncc1CCO3	> 100 µM	–
C=C1C2CCC3C4(C)CCCC(C)(C(=O)O)C4CCC3(C2)C1OC(=O)/C(C)=C/C (configuration not stated)	> 100 µM	–
O=c1[nH]c(NCc2cccnc2)nc2nc[nH]c12	> 100 µM	–
COc1ccc(NC(=O)Oc2ccc3c(C)cc(=O)oc3c2)c(OC)c1 (tested in a mixture with another compound)	> 100 µM	–
O=C(c1c(F)c(F)c(F)c(F)c1F)c1c(F)c(F)c(F)c(F)c1F	11.2 µM	–
COC(=O)/C=C1/SC(=Nc2cccc(Cl)c2)N(CCc2c[nH]c3ccc(O)cc23)C1=O	3.93 µM	1.87 µM
CN(O)C(=O)CCC(NC(=O)CCC(N)C(=O)O)C(=O)NCC(=O)O (configuration not stated)	> 100 µM	–
CCOC(=O)C12CCCC1(O)N(NC(=O)OC)C(C)=C2C(=O)OC (configuration not stated)	> 100 µM	–
CCOC(=O)c1c(O)cn2c1[nH]c1cccc3cccc2c31	> 100 µM	–

Source: PubChem BioAssay (NCI)
